This is one part of the list.

For this assay, the target named is T1, OsWOX13 (Oryza sativa, UniProt Q5QMM3 1-267).
T1 sequence: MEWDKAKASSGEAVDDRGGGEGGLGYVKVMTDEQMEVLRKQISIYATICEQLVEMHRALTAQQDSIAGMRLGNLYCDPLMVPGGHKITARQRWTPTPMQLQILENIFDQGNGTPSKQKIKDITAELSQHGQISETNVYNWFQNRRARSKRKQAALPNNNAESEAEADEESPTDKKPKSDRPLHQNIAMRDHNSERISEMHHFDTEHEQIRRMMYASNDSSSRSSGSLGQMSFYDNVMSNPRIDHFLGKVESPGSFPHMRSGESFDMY
Description: protein-binding microarray (RPBM); PBS, 2% BSA, 51.3 ng/ul salmon testes DNA, 50 uM zinc acetate, 200 nM TF, 25 C, 1 h; high values mean tight binding. The settings on record: protein: recombinant; tags: N-terminal polyhistidine and DsRed monomer fusion (pET32a); label: CyDye5-dUTP incorporated in the synthesized complementary strand; 3' TTTTT single-stranded linker to array surface; dsDNA, one strand shown. The method in brief:
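An Axon 4000B scanner gave the binding signal as per-feature fluorescence intensity in arbitrary units. This followed washing of a custom Agilent array that had been incubated for 1 h at 25 °C with 200 nM protein in PBS, 2% BSA, salmon testes DNA and 50 µM zinc acetate. The proteins were transcription factors fused at the N-terminus to polyhistidine and DsRed, expressed in E. coli BL21-CodonPlus and purified on Ni–NTA.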
On to “AATATCAATCAATAGCTTTGCGGCGACGCCCTTCCTCGCGCGGAGTCACCTAGTGCAG”, for which the binding signal was 20300 fluorescence intensity (a.u.).

For “CTTAATTAGCGCGAATATATCTAACATATGCATATGGAAGCGGAGTCACCTAGTGCAG”, the binding signal was 24600 fluorescence intensity (a.u.).

“ATTTGTTGATTGCTCTGTTGGGTTACCATCGATTTCTCTGCGGAGTCACCTAGTGCAG”: the binding signal was 36700 fluorescence intensity (a.u.). Regarding “TACCCCAATCAAACCTAACACATCTTAACAAATCCCATTTCGGAGTCACCTAGTGCAG”, the binding signal is 3660 fluorescence intensity (a.u.). For “CCGCTGTCATCTCCTTTACTGATAACCATTTACTCATCCACGGAGTCACCTAGTGCAG”, the binding signal was 3980 fluorescence intensity (a.u.). For “TTGGGTAAAACCTATAGTTTAACTGCTTATCCATATATTACGGAGTCACCTAGTGCAG”, the binding signal was 15100 fluorescence intensity (a.u.). With “GGTGTAAATTGGACTTATCCCCAAATTACCTCGAGGCCCACGGAGTCACCTAGTGCAG”, the binding signal was 30700 fluorescence intensity (a.u.).

For the sequence “ACTAATTATACAGATTGCGTGTAAATTGTGAGACGAATCTCGGAGTCACCTAGTGCAG”, the binding signal was 41000 fluorescence intensity (a.u.). Consider “AATAAATATATATATATACCTAAATTTATTAACATGTGGACGGAGTCACCTAGTGCAG”, for which the binding signal is 3180 fluorescence intensity (a.u.). In the case of “TGAGGATGATTGCCCAACGGATGGGAGAGACGACGGCTACCGGAGTCACCTAGTGCAG”, the binding signal was 9400 fluorescence intensity (a.u.). On to “TGGATTGGATTAGTGTGTCCCTGCCTCTCTGGAATGGATACGGAGTCACCTAGTGCAG”, for which the binding signal was 6490 fluorescence intensity (a.u.).

Regarding “GCAATCACCATTTTGTAAACAAATCATGCATCCTGCCGGTCGGAGTCACCTAGTGCAG”, the binding signal is 6260 fluorescence intensity (a.u.).

As for “AGGTCAATCAACACTAACAAATGGCTTTATATATACATAGCGGAGTCACCTAGTGCAG”, the binding signal was 26200 fluorescence intensity (a.u.).

Turning to “GGGGTTAGATGGGCTCATTTAGATGGGATTAAATGGGCCGCGGAGTCACCTAGTGCAG”, the binding signal was 5080 fluorescence intensity (a.u.).

For “TGATTGATTGCTTGATTGGGAGTGTCCTTTGGGCGAGCTGCGGAGTCACCTAGTGCAG”, the binding signal is 64900 fluorescence intensity (a.u.). Turning to “CGGAAACAGATCATCAAACCCATACGTCAGTGATCCAAGTCGGAGTCACCTAGTGCAG”, the binding signal is 3420 fluorescence intensity (a.u.).

Regarding “TCCCTGTTGATGAAATGACAACCACATCGAATAGGTAGGGCGGAGTCACCTAGTGCAG”, the binding signal is 3230 fluorescence intensity (a.u.). As to “ATAATTTGCATGTAAATTATAAGACGAATCTTTTGAGCCTCGGAGTCACCTAGTGCAG”, the binding signal is 36600 fluorescence intensity (a.u.). As for “CTTGTGATGATACTGATAGACGGTTGTTCCAAGCAGCAACCGGAGTCACCTAGTGCAG”, the binding signal was 13400 fluorescence intensity (a.u.).

Take “CATTTTGTTAGATTGAGTCTTTTCTTTCTTCTTCATCTATCGGAGTCACCTAGTGCAG”: the binding signal is 5960 fluorescence intensity (a.u.). Take “TATAATTGTAGGATTGGGATTTGTATATTAATATATACAGCGGAGTCACCTAGTGCAG”: the binding signal was 21200 fluorescence intensity (a.u.).

As for “ACTGATTGTATTGTATAGTAGTATTGCTGTATTAGTTTGTCGGAGTCACCTAGTGCAG”, the binding signal was 31500 fluorescence intensity (a.u.). Take “CACCAAGAATTGAATTAATTATGTATATATATTGCCAATCCGGAGTCACCTAGTGCAG”: the binding signal was 10600 fluorescence intensity (a.u.). As to “AGATTAAGATTAAGTGATTTACGTAAAACGAGGTAATAATCGGAGTCACCTAGTGCAG”, the binding signal was 3310 fluorescence intensity (a.u.). For the sequence “TTGATTGCTTGTTTGATTGGTGGTTCTTGAGCGAGAAGAGCGGAGTCACCTAGTGCAG”, the binding signal was 63300 fluorescence intensity (a.u.). “TAGTTAAATCCATCAATCCAGGATGGTTCATTTGATTTAGCGGAGTCACCTAGTGCAG”: the binding signal is 4240 fluorescence intensity (a.u.).

With “AATGTGTAATTATTTCGAGGAAAAGTTTCTTTTCTCCCTTCGGAGTCACCTAGTGCAG”, the binding signal is 5400 fluorescence intensity (a.u.). For “AGTGATTGTGTTTAATCTTAATGACTCGCTCCCCTCACACCGGAGTCACCTAGTGCAG” the value was 27000 fluorescence intensity (a.u.); for “TTTTGTACAAAATCATGTCATAATGATATCGTGCCTTGTACGGAGTCACCTAGTGCAG”, 3420 fluorescence intensity (a.u.). For “ACTGATTATTATATAAATTTGAGCATATTTATTTACATTACGGAGTCACCTAGTGCAG” the value was 38600 fluorescence intensity (a.u.); for “TCTAAAATTAAGTTTTAAAACTTAAATTCGGTTGTGGCTGCGGAGTCACCTAGTGCAG”, 7170 fluorescence intensity (a.u.).

“TGGACCGAAAATTGATAAGTAGACTTATTAGGAGGTTGATCGGAGTCACCTAGTGCAG”: the binding signal is 7240 fluorescence intensity (a.u.).

For “TTGCTAAATTGTTCTATAAACTTTGTCAAACTTAACTAGGCGGAGTCACCTAGTGCAG”, the binding signal was 9210 fluorescence intensity (a.u.). On to “CCCAGTCAATCTCCCCATCTCCTCGGCCTCGGCAATAGTACGGAGTCACCTAGTGCAG”, for which the binding signal is 7200 fluorescence intensity (a.u.).

With “TGTAGTCTGCAGGTGATTGAAACCATCTGTAATACAATAACGGAGTCACCTAGTGCAG”, the binding signal was 7410 fluorescence intensity (a.u.). For the sequence “TAGGTAATAAATATGCAACAATTGACATATTTCTACCCGCCGGAGTCACCTAGTGCAG”, the binding signal is 3330 fluorescence intensity (a.u.).

“TCTTAATCATCCAGCATTTGATAAACTTTGGCACATTTCTCGGAGTCACCTAGTGCAG”: the binding signal was 4500 fluorescence intensity (a.u.). In the case of “AACACAAAATTGATGTTAAAGTTTAACCAAACCATTATCTCGGAGTCACCTAGTGCAG” it was 7820 fluorescence intensity (a.u.); in that of “ACGCAAATGATTGTGTGTAGATCGATCGATCTGTTACTACCGGAGTCACCTAGTGCAG”, 12800 fluorescence intensity (a.u.); in that of “ATTGTATGAATTAGCTATTAAATTGACTATATATATGATTCGGAGTCACCTAGTGCAG”, 13500 fluorescence intensity (a.u.).

On to “ATTTGTAATTACATGTTAATTATAATGTAATCATATTATACGGAGTCACCTAGTGCAG”, for which the binding signal is 31100 fluorescence intensity (a.u.).

Turning to “TTAATTTGTCACCGAGTAGGAAATTCATCCATGGACTGCACGGAGTCACCTAGTGCAG”, the binding signal was 3290 fluorescence intensity (a.u.). In the case of “GTTTACAATAATTAATATCCAATTAATCATGCACTAATAACGGAGTCACCTAGTGCAG” it was 24500 fluorescence intensity (a.u.).

Take “ATCCATGGTTATTTGATTGATGGATATCTATCTTCTCTTGCGGAGTCACCTAGTGCAG”: the binding signal is 32800 fluorescence intensity (a.u.). In the case of “TCCTTGATGGTTATCTAAATTTATATCAGATATATTGAGTCGGAGTCACCTAGTGCAG” it was 23600 fluorescence intensity (a.u.); in that of “AACCACGTTGATTATCCCGAGTTCCCGACACCGTTGGAAACGGAGTCACCTAGTGCAG”, 6200 fluorescence intensity (a.u.). In the case of “GTTATAACAAATTTGTTTTGCGTGGTTTATTGTAAAATTACGGAGTCACCTAGTGCAG” it was 12700 fluorescence intensity (a.u.); in that of “CTAACCTATTAATCAAATTACTAGCATCTGAAATCAACGCCGGAGTCACCTAGTGCAG”, 10300 fluorescence intensity (a.u.). Regarding “CGGATTGGGAGTAATTAATTACTCCTACTACTACTAGTGTCGGAGTCACCTAGTGCAG”, the binding signal is 42000 fluorescence intensity (a.u.). As for “GAGTTATTTATGATTTGTATTCCCAAGGCTTGACTTAAACCGGAGTCACCTAGTGCAG”, the binding signal was 7160 fluorescence intensity (a.u.). On to “TTTTATTGATTACGGAAAAGAGGATTACATTCTTGGTCTACGGAGTCACCTAGTGCAG”, for which the binding signal is 24800 fluorescence intensity (a.u.). In the case of “CAAATTTTAAATAGTTTTAAATTCCTATATAGACACTGTACGGAGTCACCTAGTGCAG” it was 3180 fluorescence intensity (a.u.). For the sequence “TCATGATTAAGATGGGCTCACTATGTAATTTTATTTATAACGGAGTCACCTAGTGCAG”, the binding signal is 8240 fluorescence intensity (a.u.). In the case of “GCCAAGCTTAATTAATTATGCCAAAGAATCATCGCACTATCGGAGTCACCTAGTGCAG” it was 19400 fluorescence intensity (a.u.).

Source of the values: paper PMC7819943, “Rice protein-binding microarrays: a tool to detect cis-acting elements near promoter regions in rice”.
